# Laboratory results from the supplement of paper PMC4967469.
# A lower IC50 marks a more sensitive line; a limit (>, <) means that the fit lies beyond the doses tested. The AUC spans the tested range (256-fold, ending at the top dose) of the same fit; it is 1 without any effect and falls as sensitivity rises. For some of these results: Where the top dose is marked as inferred, it comes from the curve model; the source does not state it. For some of these results: Where an entry number is given, a second screen of the drug exists; the two often differ.
# Tests used:
# Test in all cases: Viability of human cancer cell lines after 72 h of drug (GDSC screen)
# [1] = compound: C=C1C(=O)O[C@H]2[C@H]1CC/C(C)=C/CC[C@@]1(C)O[C@@H]21 [Parthenolide]; conditions: top dose 5 µM
# Method: (§1)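 Human cancer cell lines in 384-well plates, medium with 10% serum, drug for 72 h over a 256-fold dose range (nine 2-fold or five 4-fold steps up to the top dose). Adherent lines were fixed and stained with the nucleic acid dye Syto60, suspension lines read with resazurin; signal relative to control wells, capped at 0 and 100%. One two-parameter sigmoid per drug and line, fitted in a mixed model over all curves with the slope shared within a line.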
# [2] = compound: C=CCc1cccc(/C=N/NC(=O)CN2CCN(Cc3ccccc3)CC2)c1O [PAC-1]; conditions: top dose 2.56 µM
# Method: as §1
# [3] = compound: COc1cc2ncn(-c3cc(OCc4ccccc4S(C)(=O)=O)c(C#N)s3)c2cc1OC [KIN001-135]; conditions: top dose 5 µM; top dose inferred
# Method: as §1
# [4] = compound: NC(=O)[C@@H](CCC(F)(F)F)N(Cc1ccc(-c2ncon2)cc1F)S(=O)(=O)c1ccc(Cl)cc1 [BMS-708163]; conditions: top dose 5 µM; screen: GDSC drug entry 1072; top dose inferred
# Method: as §1
Cell Line,AUC [1],IC50 [1] [µM],AUC [2],IC50 [2] [µM],AUC [3],IC50 [3] [µM],AUC [4],IC50 [4] [µM]
"NB1 (neuroblastoma, semi-adherent)",0.937,> 5,0.931,> 2.56,0.934,> 5,0.981,> 5
"NB5 (neuroblastoma, adherent)",0.98,> 5,0.955,> 2.56,0.973,> 5,0.919,> 5
"NB6 (neuroblastoma, adherent)",0.984,> 5,0.984,> 2.56,0.966,> 5,0.975,> 5
"NB10 (neuroblastoma, adherent)",0.771,1.87,0.962,> 2.56,0.815,2.67,0.982,> 5
"NB12 (neuroblastoma, adherent)",0.966,> 5,0.975,> 2.56,0.974,> 5,0.979,> 5
"NB14 (neuroblastoma, adherent)",0.873,4.35,0.908,> 2.56,0.987,> 5,0.987,> 5
"NB69 (neuroblastoma, adherent)",0.989,> 5,0.954,> 2.56,0.989,> 5,0.988,> 5
"NB(TU)1-10 (neuroblastoma, adherent)",0.992,> 5,0.818,1.2,0.987,> 5,0.993,> 5
"NB-4 (acute myeloid leukaemia, suspension)",0.92,> 5,0.824,1.17,0.99,> 5,0.979,> 5
"NCI-H23 (lung adenocarcinoma, adherent)",0.988,> 5,0.982,> 2.56,0.985,> 5,0.861,4.16
"NCI-H64 (small cell lung carcinoma, suspension)",0.979,> 5,0.968,> 2.56,0.996,> 5,0.992,> 5
"NCI-H69 (small cell lung carcinoma, suspension)",0.985,> 5,0.948,> 2.56,0.981,> 5,0.986,> 5
"NCI-H82 (small cell lung carcinoma, suspension)",0.986,> 5,0.989,> 2.56,0.988,> 5,0.986,> 5
"NCI-H187 (small cell lung carcinoma, suspension)",0.981,> 5,0.986,> 2.56,0.955,> 5,0.988,> 5
"NCI-H209 (small cell lung carcinoma, suspension)",0.985,> 5,0.914,> 2.56,0.967,> 5,0.986,> 5
"NCI-H211 (small cell lung carcinoma, adherent)",0.968,> 5,0.851,1.88,0.962,> 5,0.979,> 5
"NCI-H322M (lung adenocarcinoma, suspension)",0.983,> 5,0.985,> 2.56,0.98,> 5,0.984,> 5
"NCI-H345 (small cell lung carcinoma, suspension)",0.958,> 5,0.987,> 2.56,0.988,> 5,0.99,> 5
"NCI-H446 (small cell lung carcinoma, semi-adherent)",0.967,> 5,0.965,> 2.56,0.954,> 5,0.966,> 5
"NCI-H510A (small cell lung carcinoma, semi-adherent)",0.988,> 5,0.983,> 2.56,0.985,> 5,0.989,> 5
"NCI-H524 (small cell lung carcinoma, suspension)",0.847,3.12,0.99,> 2.56,0.984,> 5,0.99,> 5
"NCI-H526 (small cell lung carcinoma, suspension)",0.967,> 5,0.966,> 2.56,0.989,> 5,0.989,> 5
"NCI-H716 (large intestine, suspension)",0.98,> 5,0.972,> 2.56,0.981,> 5,0.982,> 5
"NCI-H720 (lung carcinoid, suspension)",0.863,3.75,0.99,> 2.56,0.986,> 5,0.988,> 5
"NCI-H747 (large intestine, adherent)",0.953,> 5,0.885,> 2.56,0.973,> 5,0.981,> 5
"NCI-H847 (small cell lung carcinoma, adherent)",0.933,> 5,0.951,> 2.56,0.977,> 5,0.991,> 5
"NCI-H1092 (small cell lung carcinoma, suspension)",0.968,> 5,0.975,> 2.56,0.97,> 5,0.989,> 5
"NCI-H1155 (large cell lung carcinoma, suspension)",0.972,> 5,0.993,> 2.56,0.988,> 5,0.991,> 5
"NCI-H1299 (large cell lung carcinoma, adherent)",0.962,> 5,0.812,1.77,0.982,> 5,0.907,> 5
